The text below walks through data of PMC10407929.

Some of the results follow. The protein was read in a cell extract, so binding may be indirect.

Some targets named below: HSPA1B (Homo sapiens) (UniProt P0DMV9); HSPA5 (Homo sapiens) (UniProt P11021); HSPA8 (Homo sapiens) (UniProt P11142); HSPA9 (Homo sapiens) (UniProt P38646).
Holding throughout (assay): pull-down
What all share (conditions): 150 mM NaCl, 50 mM Tris pH 8.0, 0.25% NP-40, 1 mM DTT; 4 C, 2 h; 100 ug nuclear extract; double strand, one strand shown

For a further assay, the target named is T1, FBXL12 (Homo sapiens) (UniProt Q9NXK8).
T1 sequence: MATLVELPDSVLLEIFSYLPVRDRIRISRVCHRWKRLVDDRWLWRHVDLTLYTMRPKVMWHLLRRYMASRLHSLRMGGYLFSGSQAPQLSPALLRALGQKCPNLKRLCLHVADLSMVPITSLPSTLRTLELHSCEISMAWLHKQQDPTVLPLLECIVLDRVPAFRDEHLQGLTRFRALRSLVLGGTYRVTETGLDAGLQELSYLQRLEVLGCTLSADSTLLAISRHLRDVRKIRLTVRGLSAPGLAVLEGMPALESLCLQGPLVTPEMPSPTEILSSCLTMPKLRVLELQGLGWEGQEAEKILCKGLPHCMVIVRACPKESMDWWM

A further assay addresses T2, HLTF (Homo sapiens) (UniProt Q14527).
T2 sequence: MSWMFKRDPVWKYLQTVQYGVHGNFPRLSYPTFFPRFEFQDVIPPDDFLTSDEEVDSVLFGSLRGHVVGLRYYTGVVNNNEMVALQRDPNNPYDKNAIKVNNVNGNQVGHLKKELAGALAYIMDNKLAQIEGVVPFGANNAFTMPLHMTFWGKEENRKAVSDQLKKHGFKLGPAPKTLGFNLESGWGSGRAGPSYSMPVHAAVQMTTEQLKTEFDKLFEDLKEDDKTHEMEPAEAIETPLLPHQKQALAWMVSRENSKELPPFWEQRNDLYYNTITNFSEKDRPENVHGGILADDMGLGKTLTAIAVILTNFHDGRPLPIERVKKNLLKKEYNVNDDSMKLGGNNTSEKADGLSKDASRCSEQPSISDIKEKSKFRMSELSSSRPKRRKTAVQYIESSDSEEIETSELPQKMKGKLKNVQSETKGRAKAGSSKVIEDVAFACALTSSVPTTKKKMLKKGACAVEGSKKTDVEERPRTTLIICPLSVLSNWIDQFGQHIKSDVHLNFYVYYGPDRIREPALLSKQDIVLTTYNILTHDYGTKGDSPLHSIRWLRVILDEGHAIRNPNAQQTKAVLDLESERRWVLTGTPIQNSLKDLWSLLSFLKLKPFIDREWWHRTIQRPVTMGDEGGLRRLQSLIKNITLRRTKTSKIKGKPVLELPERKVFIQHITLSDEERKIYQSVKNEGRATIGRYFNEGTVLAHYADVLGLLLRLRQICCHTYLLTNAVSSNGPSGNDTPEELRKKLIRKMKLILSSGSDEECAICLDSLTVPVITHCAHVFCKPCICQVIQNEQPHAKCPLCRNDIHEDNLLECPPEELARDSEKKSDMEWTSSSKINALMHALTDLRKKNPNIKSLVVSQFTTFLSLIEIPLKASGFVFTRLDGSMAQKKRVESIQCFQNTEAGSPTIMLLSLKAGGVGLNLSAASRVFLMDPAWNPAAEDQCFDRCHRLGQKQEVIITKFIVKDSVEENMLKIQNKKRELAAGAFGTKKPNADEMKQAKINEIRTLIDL

For another assay, the target named is T3, KDM2B (Homo sapiens) (UniProt Q8NHM5).
T3 sequence: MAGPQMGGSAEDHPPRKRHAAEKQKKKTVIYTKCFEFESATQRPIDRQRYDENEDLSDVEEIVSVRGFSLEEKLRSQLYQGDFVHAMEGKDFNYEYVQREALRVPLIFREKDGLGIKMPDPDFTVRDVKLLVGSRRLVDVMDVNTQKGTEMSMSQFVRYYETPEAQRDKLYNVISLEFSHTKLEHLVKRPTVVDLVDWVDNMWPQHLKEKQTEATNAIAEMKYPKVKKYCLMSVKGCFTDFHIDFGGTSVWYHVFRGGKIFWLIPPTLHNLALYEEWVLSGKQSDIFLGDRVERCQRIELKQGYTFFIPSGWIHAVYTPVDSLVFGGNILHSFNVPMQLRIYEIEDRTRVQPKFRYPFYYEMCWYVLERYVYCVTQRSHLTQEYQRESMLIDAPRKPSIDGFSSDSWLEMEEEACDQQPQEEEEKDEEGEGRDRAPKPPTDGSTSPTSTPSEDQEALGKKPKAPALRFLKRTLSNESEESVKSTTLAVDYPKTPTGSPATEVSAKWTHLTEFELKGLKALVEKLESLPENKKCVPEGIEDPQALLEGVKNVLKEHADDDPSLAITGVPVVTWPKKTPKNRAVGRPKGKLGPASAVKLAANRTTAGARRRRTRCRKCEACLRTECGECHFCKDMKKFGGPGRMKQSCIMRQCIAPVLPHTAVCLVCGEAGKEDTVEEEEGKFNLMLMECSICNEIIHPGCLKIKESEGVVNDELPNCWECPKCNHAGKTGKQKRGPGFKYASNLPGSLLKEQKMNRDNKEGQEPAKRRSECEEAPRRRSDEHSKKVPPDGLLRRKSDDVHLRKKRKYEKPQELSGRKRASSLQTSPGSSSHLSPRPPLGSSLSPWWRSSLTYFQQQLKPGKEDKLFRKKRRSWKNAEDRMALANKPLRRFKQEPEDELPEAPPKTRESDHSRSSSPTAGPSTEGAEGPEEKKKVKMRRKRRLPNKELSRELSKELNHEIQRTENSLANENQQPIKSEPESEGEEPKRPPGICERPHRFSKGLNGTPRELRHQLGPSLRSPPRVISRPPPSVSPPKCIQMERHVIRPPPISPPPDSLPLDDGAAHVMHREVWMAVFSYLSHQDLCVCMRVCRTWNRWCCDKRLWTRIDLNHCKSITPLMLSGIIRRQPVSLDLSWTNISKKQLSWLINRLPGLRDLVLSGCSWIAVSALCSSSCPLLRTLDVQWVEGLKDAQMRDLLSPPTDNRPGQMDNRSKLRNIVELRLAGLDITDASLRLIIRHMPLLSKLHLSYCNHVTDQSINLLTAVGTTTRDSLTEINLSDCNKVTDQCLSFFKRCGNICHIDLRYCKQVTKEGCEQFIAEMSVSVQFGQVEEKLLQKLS

The next assay addresses T4, HNRNPH3 (Homo sapiens) (UniProt P31942).
T4 sequence: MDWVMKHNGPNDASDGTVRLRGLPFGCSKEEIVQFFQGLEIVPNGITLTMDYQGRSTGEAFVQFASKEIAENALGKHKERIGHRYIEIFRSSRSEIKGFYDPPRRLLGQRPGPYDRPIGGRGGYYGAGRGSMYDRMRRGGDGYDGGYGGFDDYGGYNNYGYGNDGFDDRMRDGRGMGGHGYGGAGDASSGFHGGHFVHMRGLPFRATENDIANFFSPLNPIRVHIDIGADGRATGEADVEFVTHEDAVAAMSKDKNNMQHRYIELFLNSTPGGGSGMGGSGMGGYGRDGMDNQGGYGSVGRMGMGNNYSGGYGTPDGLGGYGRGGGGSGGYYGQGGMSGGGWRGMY

Assay [1] has as its target T5, HMGA1 (Homo sapiens) (UniProt P17096).
T5 sequence: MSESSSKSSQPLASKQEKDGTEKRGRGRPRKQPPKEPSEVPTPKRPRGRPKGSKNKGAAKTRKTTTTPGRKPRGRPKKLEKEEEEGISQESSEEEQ

Assay [2] concerns the target T6, HMGA1 (Homo sapiens) (UniProt P17096).
T6 sequence: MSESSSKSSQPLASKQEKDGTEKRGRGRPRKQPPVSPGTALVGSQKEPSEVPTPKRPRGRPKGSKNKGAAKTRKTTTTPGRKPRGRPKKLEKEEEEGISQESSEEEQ
This is another data set of the same source.

Chain of UniProt P38646 (P38646 whole entry): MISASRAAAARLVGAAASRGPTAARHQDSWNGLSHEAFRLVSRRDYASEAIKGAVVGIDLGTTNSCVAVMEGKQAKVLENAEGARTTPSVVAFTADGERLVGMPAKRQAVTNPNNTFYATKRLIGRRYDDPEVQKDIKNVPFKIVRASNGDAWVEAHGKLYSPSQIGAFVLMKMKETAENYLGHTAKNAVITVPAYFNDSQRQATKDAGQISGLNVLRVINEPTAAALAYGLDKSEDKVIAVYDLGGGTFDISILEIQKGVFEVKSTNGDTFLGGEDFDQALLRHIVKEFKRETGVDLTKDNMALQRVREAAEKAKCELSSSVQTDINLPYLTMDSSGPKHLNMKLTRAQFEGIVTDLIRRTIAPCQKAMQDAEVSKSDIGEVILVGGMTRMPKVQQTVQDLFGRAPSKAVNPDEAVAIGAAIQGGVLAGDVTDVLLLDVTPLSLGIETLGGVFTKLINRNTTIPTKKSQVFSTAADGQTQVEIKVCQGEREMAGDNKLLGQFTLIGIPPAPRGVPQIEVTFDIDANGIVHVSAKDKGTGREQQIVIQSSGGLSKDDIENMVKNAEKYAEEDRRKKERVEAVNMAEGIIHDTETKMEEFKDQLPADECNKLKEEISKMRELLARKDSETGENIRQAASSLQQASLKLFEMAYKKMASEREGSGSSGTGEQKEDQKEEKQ
Chain of UniProt P11021 (P11021 whole entry): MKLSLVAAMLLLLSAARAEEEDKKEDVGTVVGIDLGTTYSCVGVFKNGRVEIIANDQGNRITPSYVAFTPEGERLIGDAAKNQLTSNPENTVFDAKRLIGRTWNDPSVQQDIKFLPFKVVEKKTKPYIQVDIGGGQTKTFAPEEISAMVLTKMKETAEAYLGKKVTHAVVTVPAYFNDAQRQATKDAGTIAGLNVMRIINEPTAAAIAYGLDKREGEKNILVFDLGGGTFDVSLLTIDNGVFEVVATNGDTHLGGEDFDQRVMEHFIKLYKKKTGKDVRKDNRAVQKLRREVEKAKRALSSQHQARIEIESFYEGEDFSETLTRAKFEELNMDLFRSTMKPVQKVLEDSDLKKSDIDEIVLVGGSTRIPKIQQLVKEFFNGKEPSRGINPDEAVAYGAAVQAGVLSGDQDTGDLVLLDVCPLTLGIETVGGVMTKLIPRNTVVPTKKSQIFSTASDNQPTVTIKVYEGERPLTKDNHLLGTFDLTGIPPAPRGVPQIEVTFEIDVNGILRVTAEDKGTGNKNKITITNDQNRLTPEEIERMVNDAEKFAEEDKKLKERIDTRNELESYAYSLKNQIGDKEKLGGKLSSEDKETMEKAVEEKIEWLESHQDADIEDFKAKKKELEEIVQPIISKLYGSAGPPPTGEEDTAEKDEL

With “GCCGCCGCCCTTCTCGCGAGACTGCCGGGCC [CGCG bait]”, the values for the half-maximal binding in the assay with FBXL12 (Homo sapiens), in the assay with HLTF (Homo sapiens) and with KDM2B (Homo sapiens) were 417 nM, 341 nM and 151 nM, respectively.
As to “GCCGCCGCCCTCCCACGCGCTGCCGGGCC [BEND3 bait]”, the half-maximal binding turned out to be 401 nM in the assay with HLTF (Homo sapiens); 110 nM with HNRNPH3 (Homo sapiens); 448 nM in the assay with HSPA1B (Homo sapiens); 380 nM with HSPA5 (Homo sapiens); 262 nM with HSPA8 (Homo sapiens); 178 nM with HSPA9 (Homo sapiens). The sequence also registered a half-maximal binding with KDM2B (Homo sapiens) of 397 nM.
On to “GAGAGAAAATAAAACTGGCT [SP/KLF negative control bait]”, for which the half-maximal binding was found to be 446 nM in the assay with HMGA1 (Homo sapiens) [1] and 448 nM in the assay with HMGA1 (Homo sapiens) [2].
